95 molecules from PubChem BioAssay AID485344 (National Center for Advancing Translational Sciences (NCATS), 2010) can be followed below.

Several values for one entry are separate records, joined by “and”; a condition that tells them apart may be missing. Equal values may be shown once. Among all 340,000 compounds or so, about 6,900 (2%) were called active. Cut-off read from the data, not from the text of the source: active = inhibition above about 30%; inactive = below that, where a call was filed. Only a part is listed here, and it is no random draw. Entries without a call were filed so in the source.

Broadly, the inhibition is the relative decrease from the control value, in per cent.

This experiment has as its target D(2) dopamine receptor (Homo sapiens) (UniProt P14416). Description: HTS Assay for Allosteric Antagonists of the Human D2 Dopamine Receptor: Primary Screen for Antagonists. Note: 0% is about no effect. The following applies: HEK293 TREx D2 cells, calcium flux, dopamine EC80; at 10 µM; stronger effect = higher value. From the text: NIH Chemical Genomics Center [NCGC] NIH Molecular Libraries Probe Centers Network [MLPCN] MLPCN Grant: NS064831-01 Assay Submitter (PI): David Sibley Dopamine receptors (DARs) are involved in the etiology and/or therapy of a number of neuropsychiatric and endocrine disorders. For instance, all receptor-based antiparkinsonian drugs work via stimulating the D2 DAR subtype whereas all FDA-approved antipsychotic agents are antagonists of this receptor. […] There are three different types of allosteric modulators that we are seeking, two of which will stimulate or augment receptor signaling, allosteric agonists and potentiators, while the third, allosteric antagonists, will attenuate receptor signaling. The present primary screening assay measures compound antagonism after an EC80 addition of dopamine by tracking calcium flux in a […], inducible Hek293 Trex D2 cell line.
Sequence of UniProt P14416 (P14416 whole entry, looked up): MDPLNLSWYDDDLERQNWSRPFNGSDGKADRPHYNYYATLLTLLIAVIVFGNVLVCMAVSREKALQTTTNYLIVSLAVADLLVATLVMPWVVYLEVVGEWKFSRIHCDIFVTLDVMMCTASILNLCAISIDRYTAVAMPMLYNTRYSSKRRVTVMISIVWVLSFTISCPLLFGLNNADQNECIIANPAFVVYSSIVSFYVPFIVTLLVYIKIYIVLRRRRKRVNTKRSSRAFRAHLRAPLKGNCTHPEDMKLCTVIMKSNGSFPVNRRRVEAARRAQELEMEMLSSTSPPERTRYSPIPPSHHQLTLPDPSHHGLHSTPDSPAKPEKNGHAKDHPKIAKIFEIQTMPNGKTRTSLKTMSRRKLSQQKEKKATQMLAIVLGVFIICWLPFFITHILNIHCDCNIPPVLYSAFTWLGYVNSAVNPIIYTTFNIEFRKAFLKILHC
Freshly passaged cells are plated in 1536 well black, clear bottom plates at a density of 4000 cells/well in 3 ul of complete media containing 1x tetracycline inducer. After an overnight incubation at 30 C in 5% CO2, cells are loaded with 2 ul of the no wash Calcium Assay Kit (ABD Bioquest) and incubated at room temperature for 30 to 90 minutes. Agonist read: A 10 cycle (1 second/cycle) baseline measurement is taken and then the FDSS online 1536 pintool delivers 23 nl of compound library (as well as dopamine controls) to the plate. The plate is measured for kinetically at 1 cycle/sec for 180 seconds. Following the 180 second read, 1 ul of an EC80 (negative modulation assay) is delivered by an onboard pipette head. Measurements are taken kinetically for an additional 180 seconds.
On the technique in general: A change in cytosolic calcium serves as a functional read-out for many receptors and channels.
For the molecule `C/C(CCc1ccc2c(c1)OCO2)=N\N=C1\NC(=O)CC(C(=O)Nc2ccccc2F)S1` (stereo not given), the inhibition is active: 40.4%.
Take `O=C(CCSCc1cnn(-c2ccccc2)c1-n1cccc1)NCc1ccccc1Cl`: the inhibition worked out at 13%.
On to `Cc1ccc(Cl)cc1N1CCN(C(=O)c2ccc(CS(=O)c3ccccc3)o2)CC1` (stereo not given), for which the inhibition was found to be 6.51%.
With `Cc1cc(C)cc(Nc2cc(C(=O)NCCCN(C)C3CCCCC3)c3ccccc3n2)c1` the figure was 21.6%.
In the case of `COCCNC(=O)c1nn(-c2ccc(C)cc2)c(=O)n(C)c1=O`, the inhibition was -20.4%.
In the case of `CCOC(=O)C1CCN(c2ccccc2CN2CCN(c3ccccc3OCC)CC2)CC1`, the inhibition is active: 61.3%.
As for `CCCNC(=O)CCCN1C(=O)CCn2nc(-c3cccn3C)cc21`, the inhibition is -4.36%.
On to `CCc1ccc2oc(-c3ccc(NC(=O)c4cc5ccccc5o4)cc3)nc2c1`, for which the inhibition was 6.28%.
Take `COCCCNC(=O)c1sc2nc(C)c(C(=O)Nc3ccc(C)cc3C)c(-c3ccccc3Cl)c2c1N`: the inhibition was -2.97%.
To `CCCNC(=O)Cn1c(=O)c2cccn2c2cccnc21` belongs 6.86%.
With `CCCNC(=O)C1Cc2cc(S(=O)(=O)N3CCCCCC3)ccc2N1C(C)=O` (stereo not given) the figure was 9.25%.
Regarding `COc1cc(C(=O)O)nc2ccc([N+](=O)[O-])cc12`, the inhibition was active: 38.4%.
With `COC(=O)c1ccc(C(=O)OC)c(NC(=O)c2cc3nc(-c4ccc(C)cc4)cc(C(F)(F)F)n3n2)c1` the figure was -13.3%; with `CCn1c(C(=O)NCc2ccccc2Br)cc2oc3ccccc3c21`, 7.77%; with `CCCn1cnc2cc(NCc3ccccc3OCC)ccc21`, 6.57%.
With `O=C(Nc1cccc([N+](=O)[O-])c1)C1CC(=O)N(C2CCCCC2)C1` (stereo not given) the figure was active: 30.6%.
Consider `COc1cc2[nH]c(C(=O)NCc3ccccc3)cc2c(OC)c1OC`, for which the inhibition is active: 83.8%.
In the case of `C/C=C\C(=O)Nc1cccc(C2=NOC3(C2)C[C@@H](C(N)=O)N(C(=O)C2(C)CC2)C3)c1` (stereo not given in full), the inhibition was active: 34.3%.
`CC(=O)c1ccc(NC(=O)CSc2cn(CC(=O)N(C(C)C)C(C)C)c3ccccc23)cc1`: the inhibition is -14.3%.
`CCCCN(CC)C(=O)CCNS(=O)(=O)c1ccc2c(c1)c(=O)n(C)c(=O)n2C`: the inhibition was -5.49%.
With `CCS(=O)(=O)N1CCc2cc(C(=O)Nc3cccc(C(C)=O)c3)ccc21` the figure was -14.2%.
With `CCCOc1cccc(C2c3c(-c4ccccc4O)n[nH]c3C(=O)N2Cc2ccco2)c1` (stereo not given) the figure was -0.469%.
In the case of `CC(C)CCn1c(Oc2ccccc2F)nc2c1c(=O)n(C)c(=O)n2C`, the inhibition was 3.08%.
For the molecule `Cc1cc(=O)n2[nH]c(C)c(-c3ccc(Cl)cc3)c2n1`, the inhibition is active: 45.6%.
To `COc1ccc(C2=NS(=O)(=O)N(C)C(C(=O)N(C)Cc3ccccc3)=C2)cc1OC` belongs 9.22%.
With `Cc1ccccc1OCc1nc2ccccc2n1Cc1ccccc1Cl` the figure was 7.72%; with `O=C(NCc1ccccc1Cl)c1ccc(Nc2nc3ccccc3n3nnnc23)cc1`, 21.3%.
Turning to `Cc1ccc(OCc2nc(-c3ccc(C(=O)N4CCN(c5ccccc5)CC4)cc3)oc2C)cc1`, the inhibition was 11.2%.
To `CCc1ccc(C2c3c(-c4cc(C)ccc4O)n[nH]c3C(=O)N2Cc2cccnc2)cc1` (stereo not given) belongs -6.71%; to `CCc1cnc2c(c1SCC(=O)N1CCC(C)CC1)c(=O)n(C)c(=O)n2C`, 5.83%.
To `Cc1nn(CCC(=O)N2CCN(c3ccccc3)CC2)c(C)c1S(=O)(=O)N1CCCC1` belongs -26.4%.
To `Cc1c(NC(=O)Nc2ccc(F)c(Cl)c2)c(=O)n(-c2ccccc2)n1C` belongs -6.79%.
For `CCOC(=O)c1c(S(=O)(=O)N2CCC(C(=O)Nc3ccc(OCC)cc3)CC2)c(C)n(C)c1C`, the inhibition was -3.85%.
With `CCCCN(CCCC)CCNC(=O)c1cn(C)c2ccc(S(=O)(=O)N3CCCC3)cc2c1=O` the figure was 17.3%; with `CCOc1ccc(OCC)c(Nc2cc(C)nc3nc(-c4ccco4)nn23)c1`, -1.37%.
Consider `CCOC(=O)C1=C(COC(=O)COc2ccc(Br)cc2)NC(=O)NC1C` (stereo not given), for which the inhibition was active: 82.5%.
Take `CC(=O)N1c2ccc(S(=O)(=O)N3CCCCCC3)cc2CC1C(=O)NCc1ccccc1F` (stereo not given): the inhibition is -4.82%.
With `O=C(CSc1n[nH]c(-c2ccco2)n1)Nc1ccccc1Cl` the figure was active: 30.3%; with `CCOc1ccc(CCNC(=O)CN2C(=O)c3cccnc3Oc3ccc(Cl)cc32)cc1`, 14.3%.
For the molecule `CCOc1ccc(CCNC(=O)Cn2nnc(-c3ccc(C(F)(F)F)cc3)n2)cc1OCC`, the inhibition was 5.14%.
With `CC(=O)Nc1nnc(SCc2cc(=O)c3cccc(Cl)c3[nH]2)s1` the figure was -24%.
With `Cn1cc(CCCC(=O)NCc2ccccc2Cl)c2ccccc21` the figure was 18.1%; with `CS(=O)(=O)N1CCCC(C(=O)NCCCN2CCC(Cc3ccccc3)CC2)C1` (stereo not given), active: 46.3%.
For `CCOc1cc(C(=O)NCCc2csc(-c3ccc(C)cc3)n2)cc(OCC)c1OCC`, the inhibition is 1.66%.
Turning to `CN(C(=O)c1cc2c(=O)n3ccccc3nc2n1C)c1ccccc1`, the inhibition was -17.1%.
In the case of `COc1ccc(CCNC(=O)CCn2c(=O)c3cccn3c3cccnc32)c(OC)c1OC`, the inhibition is -0.834%.
To `Cc1cccc(NC(=O)N2CCC(n3c(C)nc4cccnc43)CC2)c1` belongs -4.94%; to `O=C(CSc1nccn1Cc1ccccc1)Nc1ccc2c(c1)OCO2`, 4.23%; to `CCOC(=O)N1CCC(NC(=O)c2ccc3c(c2)N(Cc2cc(C)ccc2C)C(=O)c2ccccc2S3=O)CC1` (stereo not given), 11%.
To `CN1C(=O)C2(c3ccccc31)N(c1ccc(F)c(Cl)c1)C(=O)CS2(=O)=O` (stereo not given) belongs 7.7%; to `Cc1cc(C)c2c(n1)nn1c(C)c(CCC(=O)NCc3ccc(Cl)cc3)c(C)nc21`, 1.57%.
To `COC(=O)c1cc(S(=O)(=O)NCC2CCN(Cc3ccccc3F)CC2)c[nH]1` belongs 6.6%.
Turning to `O=C(Nc1cc(F)ccc1F)c1cc2nc(-c3ccco3)cc(C(F)(F)Cl)n2n1`, the inhibition is -5.81%.
`CCOc1ccc(-c2cn3c(n2)sc2cc(C(=O)NCCc4ccc(OC)c(OC)c4)ccc23)cc1`: the inhibition came out at 10.8%.
Turning to `CCC(=O)N1CCc2cc(S(=O)(=O)CCC(=O)N3CCN(c4ccc(C(C)=O)cc4)CC3)ccc21`, the inhibition was 11.3%.
With `COC(=O)c1ccc(NC(=O)c2cn(-c3ccccc3)nc2-c2ccncc2)cc1` the figure was active: 91.4%.
For `O=C(CCn1nc(-c2ccc(Cl)cc2)c2ccccc2c1=O)Nc1ccc(OC(F)(F)F)cc1`, the inhibition was found to be 14.3%.
In the case of `O=C(Nc1ccc(F)cc1Cl)C1Cc2ccccc2N1C(=O)c1ccccc1` (stereo not given), the inhibition is 8.66%.
With `CC(=O)c1cccc(NC(=O)c2nc3ccccc3nc2N2CCCCC2)c1` the figure was 21.5%; with `Cc1ccc(Cl)cc1N1CCN(C(=O)C2CCN(S(=O)(=O)c3ccc4c(c3)oc(=O)n4C)CC2)CC1`, -9.12%; with `CCOC(=O)C1(Cc2ccccc2C)CCCN(C(=O)c2cc(C3CC3)[nH]n2)C1` (stereo not given), active: 31.7%.
As for `COc1ccc(OC)c(CNC(=O)C2CCN(c3ncnc4c3nc3n4CCCCC3)CC2)c1`, the inhibition amounted to 4.05%.
Turning to `COC(=O)c1c(N)n(-c2ccc(OC)c(Cl)c2)c2nc3ccccc3nc12`, the inhibition was -8.46%.
With `COc1ccc(-c2nnc3c4ccccc4c(-c4ccccc4)nn23)cc1` the figure was 7.18%.
Turning to `CCOc1ccc(CCNC(=O)c2cccc(-n3c(C)nc4cccnc43)c2)cc1`, the inhibition amounted to 4.24%.
With `FC(F)(F)c1nc(-c2ccncc2)ncc1-c1nnnn1-c1ccccc1` the figure was active: 58.4%; with `O=C(Nc1ccccc1F)c1ccc(-c2ccccc2)s1`, 8.94%; with `CCN(CC)C(=O)c1sc2c(c1C)c(=O)n(-c1ccc(Cl)c(Cl)c1)c(=O)n2CC(=O)Nc1cccc(OC)c1`, -10.6%.
As to `CCOC(=O)c1nnn(CC(=O)NC(=O)Nc2cccc(CC)c2)c1C(=O)OCC`, the inhibition is -2.9%.
In the case of `O=C(COc1ccc(Cl)cc1)NCCc1csc(-c2ccc(F)cc2)n1`, the inhibition was -3.6%.
Turning to `COc1ccc(NC(=O)C2CCCN(S(=O)(=O)c3cccs3)C2)cc1` (stereo not given), the inhibition amounted to 6.81%.
To `CCC1CCCCN1CCCNC(=O)c1cc2c(=O)n(CC)c3ccccc3c2s1` (stereo not given) belongs -5.68%; to `NC(N)=NCCCC(NC(=O)c1ccccc1)C(=O)Nc1ccc([N+](=O)[O-])cc1` (stereo not given), active: 75.2%.
As to `CCN1CCN(C(c2ccccc2)c2c(O)cc(C)n(Cc3ccco3)c2=O)CC1` (stereo not given), the inhibition worked out at 7.92%.
`COc1ccc(CNC(=O)C2CCN(S(=O)(=O)c3ccc(C)cc3)CC2)cc1`: the inhibition was 22.7%.
To `N#C/C(=C/c1ccc(Cl)cc1Cl)c1nc2ccccc2c(=O)[nH]1` belongs 4.5%; to `CCCCCNC(=O)c1ccc2c(c1)nc(C)n2-c1cccc(C)c1`, 20.3%; to `O=C(CCn1c(=O)c2cccn2c2ccccc21)Nc1ccc(F)cc1`, -13.6% and active: 61.4%.
With `O=C(NCc1cccs1)c1ccc(CSc2nc3cccnc3n2Cc2ccccc2)cc1`, the inhibition was -0.115%.
To `O=C1C2=C(Nc3ccccc3SC2c2ccccc2C(F)(F)F)c2ccccc21` (stereo not given) belongs -15.3%.
To `Cc1ccc(C)c(NC(=O)Cn2c(=O)ccc3cc(S(=O)(=O)N4CCCC4)ccc32)c1` belongs 0.194%; to `Cc1cc(C)n(-c2nnc(Nc3cc(Cl)ccc3C)c3ccccc23)n1`, 10.9%.
For the molecule `Cc1nc(-c2ccc(C)c(S(=O)(=O)N3CCC(C(=O)Nc4ccc(Cl)cc4)CC3)c2)no1`, the inhibition came out at 1.14%.
To `COc1ccc(NC(=O)c2sc3nc4c(cc3c2N)CCCCCC4)cc1OC` belongs -5.57%.
Regarding `Cc1nn(C)c(C)c1S(=O)(=O)N(CC(=O)N1CCN(c2ccccc2)CC1)c1ccc(C(C)C)cc1`, the inhibition is -22.4%.
To `CCN(CC)S(=O)(=O)c1ccc(NC2CCN(Cc3ccccc3)CC2)nc1` belongs active: 36.3%; to `CCOc1ccccc1NC(=O)C1CCN(S(=O)(=O)c2ccc3[nH]c4c(c3c2)CCCCC4)CC1`, 5.29%.
As to `Cn1nc(-c2ccc(C(=O)Nc3cccc(C(F)(F)F)c3)cc2)c2ccccc2c1=O`, the inhibition came to 4.25%.
On to `CCCCC(=O)OC1=C(C(=O)c2ccccc2)N(C)S(=O)(=O)c2ccccc21`, for which the inhibition turned out to be 6.57%.
`Cc1ccc(CNC(=O)c2cc(S(=O)(=O)N3CCCCCC3)cn2C)cc1`: the inhibition was -25.2%.
With `CCOc1ccccc1NC(=O)CN1c2ccccc2S(=O)(=O)c2ccccc21`, the inhibition is 11.6%.
With `O=C(Nc1ccc(F)cc1F)c1cnn(-c2ccc(F)cc2)c1-n1cccc1` the figure was -17.5%; with `Cc1cccc(CNC(=O)c2ccc3c(c2)N(C)C(=O)C2CCCCN32)c1` (stereo not given), 21.4%.
Turning to `COc1ccc(CNS(=O)(=O)c2cnc(N)nc2)cc1`, the inhibition came out at 12.7%.
To `COc1cccc2c1Oc1ncccc1N(C(=O)Nc1cccc(Cl)c1)C2` belongs 12.1%.
